Values joined by “and” are separate entries in the source; they are usually repeats but may differ in a detail not shown here. Equal entries are not always repeated. The shares of active, inactive and inconclusive entries below differ from those in the screen. Where the call is inconclusive, the potency comes from a doubtful curve fit. Active and inactive are the calls of the source. Calls come from the whole dose curve; as a rule, active = well fitted inhibition curve with a large enough effect; inconclusive = small, poorly fitted or top-dose-only effect; inactive = flat fitted curve, though single readings scatter.
The molecules below were run against Glutathione peroxidase 1 (Homo sapiens) (UniProt P07203) (assay: Primary qHTS Assay for Inhibitors of Recombinant Selenoprotein Glutathione Peroxidase 1 (GPX1) (AID 1845191; note: nearly all actives have a fitted effect of over 65% in size)). Details: recombinant GPX1, GR-coupled NADPH fluorescence, 15 min; series mostly up to 48.8 µM.
Outline: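 GR-coupled readout: NADPH consumption tracked by fluorescence, ex 340/em 450 nm, at t=0 and after 15 min at RT. Final mix 10 nM GPX1, 1 mM GSH, 0.5 mM CHP, 0.5 mM NADPH, 100 nM GR, 0.01% BSA, following 30 min enzyme–compound preincubation.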
Potency is the fitted concentration of half-maximal effect; tags give direction and shape of the fitted curve.

Sequence of UniProt P07203 (P07203 whole entry, looked up): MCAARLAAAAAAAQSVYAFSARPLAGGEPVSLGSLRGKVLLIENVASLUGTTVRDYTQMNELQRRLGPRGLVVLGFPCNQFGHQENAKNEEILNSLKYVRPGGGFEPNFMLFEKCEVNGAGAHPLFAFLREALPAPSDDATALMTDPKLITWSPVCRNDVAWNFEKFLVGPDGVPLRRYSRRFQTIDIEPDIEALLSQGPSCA

Row | SMILES | Potency
1 | Clc1cccc(-n2nnnc2NCc2ccccc2Oc2ccccn2)c1Cl | inconclusive: 23 µM [inhibitor, single point]
2 | C#CCN(C)CC1=Cc2ccccc2Oc2ccccc21 | inactive
3 | O=C1c2cccc(O)c2C(=O)c2c(O)cc(CO)cc21 | active: 4.09 µM
4 | CNC(=O)c1c(-c2ccc(F)cc2)oc2cc(N(CCO)S(C)(=O)=O)c(C3CC3)cc12 | inconclusive: 22.7 µM [inhibitor, single point]
5 | Cc1ccc(S(=O)(=O)NC(=O)NN2CC3CCCC3C2)cc1 (centres undefined) | inconclusive: 29 µM [inhibitor, single point]
6 | NC(=O)Nc1cc(-c2cccc(F)c2)sc1C(=O)N[C@H]1CCCNC1 | inactive
7 | N[C@@H](C(=O)N[C@@H]1C(=O)N2C(C(=O)O)=C(Cl)CS[C@H]12)c1ccccc1 | inconclusive: 4.14 µM [inhibitor, single point]
8 | Cc1cnc(NC(=O)C2=C(O)c3ccccc3S(=O)(=O)N2C)s1 | inconclusive: 9.04 µM [inhibitor, partial curve, poor fit]
9 | Cc1ccc(C(=O)Nc2ccc(CN3CCN(C)CC3)c(C(F)(F)F)c2)cc1C#Cc1cnc2cccnn12 | inconclusive: 18.3 µM [inhibitor, partial curve]
10 | O=C(O)c1cn(C2CC2)c2cc(N3CCNCC3)c(F)cc2c1=O | inconclusive: 32.1 µM [inhibitor, partial curve, poor fit]
11 | Cc1nnc(C(=O)NC(C)(C)c2nc(C(=O)NCc3ccc(F)cc3)c(O)c(=O)n2C)o1 | inconclusive: 29 µM [inhibitor, single point]
12 | COc1cccc2c1C(=O)c1c(O)c3c(c(O)c1C2=O)C[C@@](O)(C(=O)CO)C[C@@H]3O[C@H]1C[C@H](N)[C@@H](O)[C@H](C)O1 | inconclusive: 32.1 µM [inhibitor, single point]
13 | Clc1ccc(C2(c3ccc(-c4cn[nH]c4)cc3)CCNCC2)cc1 | inactive
14 | N#CC[C@H](C1CCCC1)n1cc(-c2ncnc3[nH]ccc23)cn1 | active: 25.5 µM and inconclusive: 4.59 µM [inhibitor, partial curve, poor fit] and inconclusive: 32.1 µM [inhibitor, single point]
15 | CCN(CC)CCNC(=O)c1ccc2nc(-c3ccccc3)c(-c3ccc(CN4CCC(n5c(=O)[nH]c6ccccc65)CC4)cc3)nc2c1 | inconclusive: 28.6 µM [inhibitor, partial curve]
16 | CCc1c2c(nc3ccc(OC(=O)N4CCC(N5CCCCC5)CC4)cc13)-c1cc3c(c(=O)n1C2)COC(=O)[C@]3(O)CC | active: 20.2 µM and active: 2.05 µM
17 | CC(C)(N)c1ccc(-c2nc3ccccc3nc2-c2ccccc2)cc1 | inconclusive: 25.5 µM [inhibitor, single point]
18 | c1cncc(CN2CCC(n3ncc4c(N5CCOCC5)nc(-c5ccc6[nH]ccc6c5)nc43)CC2)c1 | inactive
19 | Cn1c(CNc2ccc(C(=N)N)cc2)nc2cc(C(=O)N(CCC(=O)O)c3ccccn3)ccc21 | inconclusive: 0.29 µM [inhibitor, single point]

Source: PubChem BioAssay (NCATS)
